Results reported in paper PMC8892516, “Intragenic suppressors unravel the role of the SCREAM ACT-like domain for bHLH partner selectivity in stomatal development” (Proceedings of the National Academy of Sciences of the …, 2022).
Changes are numbered by the printed parent chain. In names and notes the source's numbering stands. These are yes or no findings as the source states them, for the method shown. For part of these data: In cells and extracts the contact can be indirect. Some binding calls cover weakened binding; strength is not graded here. For part of these data: Tags and fused reporters may be left off the sequences shown. Values belong to the binder of their own block, whether it stands above or below them.

How the values were obtained:
[1] = target: T1, SPCH-nYFP (Arabidopsis thaliana) (UniProt Q700C7); assay: split reporter; BiFC, nYFP and cYFP fusions coinfiltrated with p19 into N. benthamiana leaves, confocal imaging 2 d after infiltration
T1 sequence: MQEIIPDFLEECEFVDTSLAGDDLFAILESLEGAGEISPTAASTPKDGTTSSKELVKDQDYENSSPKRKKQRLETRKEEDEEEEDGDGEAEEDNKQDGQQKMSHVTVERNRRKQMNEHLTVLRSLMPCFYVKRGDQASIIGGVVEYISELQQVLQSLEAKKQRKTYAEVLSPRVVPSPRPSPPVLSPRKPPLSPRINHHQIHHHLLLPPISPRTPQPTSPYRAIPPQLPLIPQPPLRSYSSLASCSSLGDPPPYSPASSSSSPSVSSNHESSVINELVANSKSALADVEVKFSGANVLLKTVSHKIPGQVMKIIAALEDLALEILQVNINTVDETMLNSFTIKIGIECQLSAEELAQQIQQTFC

[2] = target: T2, FAMA-nYFP (Arabidopsis thaliana) (UniProt Q56YJ8); assay: as above
T2 sequence: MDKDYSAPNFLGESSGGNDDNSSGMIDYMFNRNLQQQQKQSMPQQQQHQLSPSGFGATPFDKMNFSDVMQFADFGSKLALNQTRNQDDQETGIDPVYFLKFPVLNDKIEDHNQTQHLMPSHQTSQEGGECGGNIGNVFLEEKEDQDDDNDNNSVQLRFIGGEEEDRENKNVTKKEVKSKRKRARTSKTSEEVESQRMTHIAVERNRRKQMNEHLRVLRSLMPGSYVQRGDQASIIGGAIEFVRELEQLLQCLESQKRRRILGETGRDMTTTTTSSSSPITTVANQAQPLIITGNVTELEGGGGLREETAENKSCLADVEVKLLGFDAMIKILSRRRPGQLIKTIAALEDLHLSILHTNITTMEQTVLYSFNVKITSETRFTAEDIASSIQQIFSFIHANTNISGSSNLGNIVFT

[3] = target: T3, MUTE-nYFP (Arabidopsis thaliana) (UniProt Q9M8K6); assay: as above
T3 sequence: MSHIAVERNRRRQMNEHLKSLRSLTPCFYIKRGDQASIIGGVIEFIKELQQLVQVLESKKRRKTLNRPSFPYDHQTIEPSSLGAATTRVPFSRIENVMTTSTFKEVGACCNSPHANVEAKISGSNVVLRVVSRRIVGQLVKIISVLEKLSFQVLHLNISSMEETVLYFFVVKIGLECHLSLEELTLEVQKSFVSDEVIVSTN

[4] = target: T4, MUTE fused to the DNA binding domain (Arabidopsis thaliana) (UniProt Q9M8K6); assay: two-hybrid; Matchmaker 3 system, yeast AH109; DNA binding domain fusions as bait, activation domain fusions as prey; SD -Trp -Leu -His with 0.1, 0.5 and 1 mM 3-amino-1,2,4-triazole
T4 sequence: T3 sequence

[5] = target: T5, scrm-D L484F-cYFP (Arabidopsis thaliana) (UniProt Q9LSE2); assay: split reporter; BiFC; N. benthamiana leaves co-infiltrated with nYFP and cYFP fusions and p19; confocal imaging 2 d after infiltration
T5 sequence: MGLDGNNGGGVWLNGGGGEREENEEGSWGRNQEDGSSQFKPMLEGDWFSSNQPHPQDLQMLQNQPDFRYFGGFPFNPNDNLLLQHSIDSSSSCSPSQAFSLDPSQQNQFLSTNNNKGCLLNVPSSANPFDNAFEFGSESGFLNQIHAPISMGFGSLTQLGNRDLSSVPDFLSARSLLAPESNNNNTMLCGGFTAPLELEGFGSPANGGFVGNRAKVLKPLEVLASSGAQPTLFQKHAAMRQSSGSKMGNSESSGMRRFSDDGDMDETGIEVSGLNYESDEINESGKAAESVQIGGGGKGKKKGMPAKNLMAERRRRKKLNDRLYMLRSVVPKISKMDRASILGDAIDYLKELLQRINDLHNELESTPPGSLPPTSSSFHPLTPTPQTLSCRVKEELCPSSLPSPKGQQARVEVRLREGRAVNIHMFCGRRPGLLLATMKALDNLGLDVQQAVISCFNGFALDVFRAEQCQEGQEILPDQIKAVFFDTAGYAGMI

[6] = target: T6, MUTE-ACTL (114-202) (Arabidopsis thaliana, UniProt Q9M8K6 114-202); assay: condition: 150 μM SCRM L484F ACTL injected into 15 μM MUTE ACTL; ITC; Malvern PEAQ-ITC, 25 °C, PBS pH 7.4; 150 μM SCRM ACTL/SCRM L484F ACTL injected into 15 μM SPCH ACTL/MUTE ACTL; both purified
T6 construct: MUTE, Arabidopsis thaliana, C-terminal ACT-like domain, residues 114-202; also called MUTE ACTL domain; source: E. coli BL21, purified (glutathione resin, thrombin, Superdex-200); not shown: GST, N-terminal, cleaved
T6 sequence (looked up): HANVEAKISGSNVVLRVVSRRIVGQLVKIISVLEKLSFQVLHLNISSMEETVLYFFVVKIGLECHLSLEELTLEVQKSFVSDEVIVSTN

[7] = target: T7, GST-fused SCRMΔC (1-404) (Arabidopsis thaliana) (UniProt Q9LSE2); assay: BLI; as a3, samples incubated for 30 min with a 1:4 molar ratio of the control mutant E-box version of the TMM promoter fragment; both purified
T7 sequence: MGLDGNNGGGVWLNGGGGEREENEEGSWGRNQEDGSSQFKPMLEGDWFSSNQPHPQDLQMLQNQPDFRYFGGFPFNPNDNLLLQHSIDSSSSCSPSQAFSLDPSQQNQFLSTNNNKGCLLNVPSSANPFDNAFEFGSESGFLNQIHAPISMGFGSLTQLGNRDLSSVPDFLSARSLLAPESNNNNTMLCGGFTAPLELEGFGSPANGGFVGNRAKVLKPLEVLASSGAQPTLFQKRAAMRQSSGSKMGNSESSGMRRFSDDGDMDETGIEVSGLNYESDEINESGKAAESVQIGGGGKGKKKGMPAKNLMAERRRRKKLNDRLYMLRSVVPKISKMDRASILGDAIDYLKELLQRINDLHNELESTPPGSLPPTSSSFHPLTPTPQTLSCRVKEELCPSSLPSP

[8] = target: T8, GST-fused SCRM (1-494) (Arabidopsis thaliana) (UniProt Q9LSE2); assay: as above
T8 sequence: T5 sequence with H236R, F484L

[9] = target: T7, GST-fused SCRMΔC (1-404) (Arabidopsis thaliana); assay: BLI; as a3, samples incubated for 30 min with a 1:4 molar ratio of the TMM promoter DNA fragment; both purified
[10] = target: T8, GST-fused SCRM (1-494) (Arabidopsis thaliana); assay: as above
[11] = target: T7, GST-fused SCRMΔC (1-404) (Arabidopsis thaliana); assay: BLI; as a3, samples incubated for 30 min with a 1:4 molar ratio of the synthetic E-box DNA fragment; both purified
[12] = target: T8, GST-fused SCRM (1-494) (Arabidopsis thaliana); assay: as above

- binding [1]: binds
- binding [2]: binds
- binding [3]: binds
B1: SCRM-cYFP (protein, UniProt Q9LSE2 1-494)
chain: T5 sequence with H236R, F484L

- binding [1]: binds
- binding [2]: binds
- binding [3]: binds
B2: scrm-D-cYFP (protein, UniProt Q9LSE2 1-494)
chain: T5 sequence with F484L

- binding [4]: binds
B3: SCREAM (SCRM) fused to the activation domain (protein, UniProt Q9LSE2 1-494)
chain: T5 sequence with H236R, F484L

- binding [4]: binds
B4: scrm-D fused to the activation domain (protein, UniProt Q9LSE2 1-494)
chain: T5 sequence with F484L

- binding [1]: binds
- binding [2]: binds
- binding [3]: no binding
B5: scrm-D_(L484F)-cYFP (protein, UniProt Q9LSE2 1-494)
chain: T5 sequence

- binding [4]: no binding
B6: scrm-D_(L484F) fused to the activation domain (protein, UniProt Q9LSE2 1-494)
chain: T5 sequence

- binding [1]: binds
- binding [2]: binds
- binding [3]: no binding
B7: SCRM_(L484F)-cYFP (protein, UniProt Q9LSE2 1-494)
chain: T5 sequence with H236R

- binding [4]: no binding
B8: SCRM_(L484F) fused to the activation domain (protein, UniProt Q9LSE2 1-494)
chain: T5 sequence with H236R

- binding [5]: no binding
B9: MUTE-nYFP (protein, UniProt Q9M8K6 1-202)
chain: T3 sequence

- binding [6]: no binding
B10: SCRM ACTL L484F (405-494) (domain or fragment, Arabidopsis thaliana, UniProt Q9LSE2 405-494, looked up)
chain: KGQQARVEVRLREGRAVNIHMFCGRRPGLLLATMKALDNLGLDVQQAVISCFNGFALDVFRAEQCQEGQEILPDQIKAVFFDTAGYAGMI
notes: SCREAM (SCRM, ICE1), Arabidopsis thaliana, At3G26744, C-terminal ACT-like domain, residues 405-494, with L484F (the methods print L485F); also called SCRM L484F ACTL; source: E. coli BL21, purified (glutathione resin, Superdex-200)

- binding [7]: binds
- binding [8]: binds
- binding [9]: binds
- binding [10]: binds
- binding [11]: binds
- binding [12]: binds
B11: ΔNSPCH (98-364), recombinant (domain or fragment, Arabidopsis thaliana, UniProt Q700C7 98-364, looked up)
chain: GQQKMSHVTVERNRRKQMNEHLTVLRSLMPCFYVKRGDQASIIGGVVEYISELQQVLQSLEAKKQRKTYAEVLSPRVVPSPRPSPPVLSPRKPPLSPRINHHQIHHHLLLPPISPRTPQPTSPYRAIPPQLPLIPQPPLRSYSSLASCSSLGDPPPYSPASSSSSPSVSSNHESSVINELVANSKSALADVEVKFSGANVLLKTVSHKIPGQVMKIIAALEDLALEILQVNINTVDETMLNSFTIKIGIECQLSAEELAQQIQQTFC
notes: BLI and ITC name it only SPCH; ΔNSPCH (98-364) is the only long recombinant SPCH construct that the methods list; also called purified SPCH; source: E. coli BL21, purified (glutathione resin, thrombin, Superdex-200); not shown: GST, N-terminal, cleaved
